Data: publication PMC7708041
These are yes or no findings as the source states them, for the method shown. In cells and extracts the contact can be indirect. Some entries that bind do so weakly or less than the wild type. Where a sequence is shown, tags or fusion partners need not be part of it.

What was measured:
Experiment in all cases: co-IP; TAP-tagged tof1 truncation proteins captured on IgG Sepharose from yeast lysates first treated with 100 U benzonase for 40 min at 4°C and cleared; 2 h, 4°C; lysis buffer 50 mM HEPES pH 7.5, 300 mM KCl; beads boiled in sample buffer; western blot for myc tagged Top1
[1] = target: T1, tof1 997 truncation protein, C terminally TAP tagged (S. cerevisiae) (UniProt P53840)
T1 sequence: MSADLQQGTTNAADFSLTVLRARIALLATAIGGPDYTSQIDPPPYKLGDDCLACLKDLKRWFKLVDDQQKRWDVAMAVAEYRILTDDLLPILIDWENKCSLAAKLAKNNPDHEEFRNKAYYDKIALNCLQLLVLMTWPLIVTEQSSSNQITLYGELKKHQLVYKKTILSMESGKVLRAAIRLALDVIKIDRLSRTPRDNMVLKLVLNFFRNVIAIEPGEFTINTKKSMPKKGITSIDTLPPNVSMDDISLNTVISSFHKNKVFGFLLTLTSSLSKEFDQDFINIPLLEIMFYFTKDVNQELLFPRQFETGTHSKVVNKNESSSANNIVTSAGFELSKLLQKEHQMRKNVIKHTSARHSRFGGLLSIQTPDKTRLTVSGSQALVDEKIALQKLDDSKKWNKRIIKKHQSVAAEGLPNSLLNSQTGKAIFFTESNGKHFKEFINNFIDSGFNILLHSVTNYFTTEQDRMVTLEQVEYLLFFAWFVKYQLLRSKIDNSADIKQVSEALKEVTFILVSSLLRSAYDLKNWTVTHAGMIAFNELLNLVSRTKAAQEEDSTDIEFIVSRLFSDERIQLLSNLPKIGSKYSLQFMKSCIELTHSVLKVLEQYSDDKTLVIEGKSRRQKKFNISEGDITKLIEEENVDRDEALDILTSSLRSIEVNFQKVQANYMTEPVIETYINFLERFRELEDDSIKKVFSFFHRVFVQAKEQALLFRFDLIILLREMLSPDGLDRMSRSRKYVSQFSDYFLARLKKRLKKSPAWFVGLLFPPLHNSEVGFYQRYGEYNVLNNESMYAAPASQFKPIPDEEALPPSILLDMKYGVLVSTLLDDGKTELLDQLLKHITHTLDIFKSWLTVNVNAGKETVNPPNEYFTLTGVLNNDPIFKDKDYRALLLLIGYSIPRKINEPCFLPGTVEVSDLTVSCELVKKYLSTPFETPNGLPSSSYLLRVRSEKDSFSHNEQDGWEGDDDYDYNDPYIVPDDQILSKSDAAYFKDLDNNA

[2] = target: T2, tof1 1182 truncation protein, C terminally TAP tagged (S. cerevisiae) (UniProt P53840)
T2 sequence: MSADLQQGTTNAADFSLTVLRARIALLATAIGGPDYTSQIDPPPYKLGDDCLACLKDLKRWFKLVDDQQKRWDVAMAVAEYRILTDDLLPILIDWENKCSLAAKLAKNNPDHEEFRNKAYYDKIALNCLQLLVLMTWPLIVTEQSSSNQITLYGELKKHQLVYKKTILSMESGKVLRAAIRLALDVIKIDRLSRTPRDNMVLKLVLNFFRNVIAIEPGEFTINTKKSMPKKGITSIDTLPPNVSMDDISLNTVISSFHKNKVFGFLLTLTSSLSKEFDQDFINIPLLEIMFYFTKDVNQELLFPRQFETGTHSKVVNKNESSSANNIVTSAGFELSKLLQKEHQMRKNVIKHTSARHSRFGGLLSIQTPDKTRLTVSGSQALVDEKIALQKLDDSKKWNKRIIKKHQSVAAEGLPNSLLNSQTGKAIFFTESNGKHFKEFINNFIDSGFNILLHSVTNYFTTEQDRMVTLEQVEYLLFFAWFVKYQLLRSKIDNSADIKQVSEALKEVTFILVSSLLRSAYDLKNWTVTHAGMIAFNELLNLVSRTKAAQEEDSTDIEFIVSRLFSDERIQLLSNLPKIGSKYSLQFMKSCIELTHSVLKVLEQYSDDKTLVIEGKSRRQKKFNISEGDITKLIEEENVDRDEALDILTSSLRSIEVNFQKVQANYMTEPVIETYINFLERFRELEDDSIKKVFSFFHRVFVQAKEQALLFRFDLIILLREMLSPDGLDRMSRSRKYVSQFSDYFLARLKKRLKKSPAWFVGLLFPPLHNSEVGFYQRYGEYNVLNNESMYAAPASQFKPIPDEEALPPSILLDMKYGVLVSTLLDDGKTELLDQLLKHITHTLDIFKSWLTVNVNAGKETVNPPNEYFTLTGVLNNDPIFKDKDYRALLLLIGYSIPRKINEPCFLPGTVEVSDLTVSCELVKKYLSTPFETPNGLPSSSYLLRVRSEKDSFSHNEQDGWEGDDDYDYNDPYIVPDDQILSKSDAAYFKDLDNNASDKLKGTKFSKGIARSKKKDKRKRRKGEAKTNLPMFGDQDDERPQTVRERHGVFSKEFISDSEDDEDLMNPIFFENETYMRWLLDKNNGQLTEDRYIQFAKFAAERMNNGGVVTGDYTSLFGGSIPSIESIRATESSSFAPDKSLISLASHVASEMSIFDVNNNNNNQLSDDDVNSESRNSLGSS

[3] = target: T3, tof1 627 truncation protein, C terminally TAP tagged (S. cerevisiae) (UniProt P53840)
T3 sequence: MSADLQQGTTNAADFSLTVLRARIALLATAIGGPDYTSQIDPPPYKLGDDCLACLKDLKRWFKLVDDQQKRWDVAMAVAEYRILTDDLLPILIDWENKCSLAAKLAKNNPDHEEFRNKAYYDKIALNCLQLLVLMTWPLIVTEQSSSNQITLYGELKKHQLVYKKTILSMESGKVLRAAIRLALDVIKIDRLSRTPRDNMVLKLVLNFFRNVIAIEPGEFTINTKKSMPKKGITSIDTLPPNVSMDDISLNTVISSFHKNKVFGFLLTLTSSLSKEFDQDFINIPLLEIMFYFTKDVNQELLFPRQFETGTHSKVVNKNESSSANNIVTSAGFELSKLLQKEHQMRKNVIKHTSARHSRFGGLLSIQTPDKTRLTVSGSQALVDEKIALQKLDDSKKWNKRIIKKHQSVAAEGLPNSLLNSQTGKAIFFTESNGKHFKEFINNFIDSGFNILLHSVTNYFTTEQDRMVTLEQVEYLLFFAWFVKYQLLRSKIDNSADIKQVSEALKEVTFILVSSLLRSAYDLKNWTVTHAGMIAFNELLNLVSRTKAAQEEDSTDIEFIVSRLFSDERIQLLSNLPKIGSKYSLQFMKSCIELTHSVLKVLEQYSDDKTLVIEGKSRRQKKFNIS

- binding [1]: no binding
- binding [2]: binds
- binding [3]: no binding
B1: myc tagged Top1 protein (enzyme, UniProt P04786 1-769)
chain: MTIADASKVNHELSSDDDDDVPLSQTLKKRKVASMNSASLQDEAEPYDSDEAISKISKKKTKKIKTEPVQSSSLPSPPAKKSATSKPKKIKKEDGDVKVKTTKKEEQENEKKKREEEEEEDKKAKEEEEEYKWWEKENEDDTIKWVTLKHNGVIFPPPYQPLPSHIKLYYDGKPVDLPPQAEEVAGFFAALLESDHAKNPVFQKNFFNDFLQVLKESGGPLNGIEIKEFSRCDFTKMFDYFQLQKEQKKQLTSQEKKQIRLEREKFEEDYKFCELDGRREQVGNFKVEPPDLFRGRGAHPKTGKLKRRVNPEDIVLNLSKDAPVPPAPEGHKWGEIRHDNTVQWLAMWRENIFNSFKYVRLAANSSLKGQSDYKKFEKARQLKSYIDAIRRDYTRNLKSKVMLERQKAVAIYLIDVFALRAGGEKSEDEADTVGCCSLRYEHVTLKPPNTVIFDFLGKDSIRFYQEVEVDKQVFKNLTIFKRPPKQPGHQLFDRLDPSILNKYLQNYMPGLTAKVFRTYNASKTMQDQLDLIPNKGSVAEKILKYNAANRTVAILCNHQRTVTKGHAQTVEKANNRIQELEWQKIRCKRAILQLDKDLLKKEPKYFEEIDDLTKEDEATIHKRIIDREIEKYQRKFVRENDKRKFEKEELLPESQLKEWLEKVDEKKQEFEKELKTGEVELKSSWNSVEKIKAQVEKLEQRIQTSSIQLKDKEENSQVSLGTSKINYIDPRLSVVFCKKYDVPIEKIFTKTLREKFKWAIESVDENWRF
